In patent US20220112236A1 (NAVIGO PROTEINS, published 2022) one finds Kd data, which are given here for one molecule.

One experiment has as its target Natalizumab (IgG4). Kind of experiment: SPR, Biacore 3000, CM5 chip, 25 C, Langmuir 1:1 model. (In SPR one partner is held on a chip, and binding of the other changes the refractive index at the surface.)
In another experiment the target is Panitumab (IgG2). The experiment is described as above.

Chain of Natalizumab (IgG4) (VH, as listed by the source, chain 1 of 2): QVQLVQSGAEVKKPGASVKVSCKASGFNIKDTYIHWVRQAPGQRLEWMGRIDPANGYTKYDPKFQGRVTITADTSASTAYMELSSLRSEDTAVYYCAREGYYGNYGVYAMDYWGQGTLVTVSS
Chain of Natalizumab (IgG4) (VL, as listed by the source, chain 2 of 2): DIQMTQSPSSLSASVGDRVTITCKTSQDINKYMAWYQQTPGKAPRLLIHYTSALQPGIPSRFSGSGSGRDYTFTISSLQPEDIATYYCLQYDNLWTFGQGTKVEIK

B1: cs50 (designed binder)
chain: IDAKFDEAQQAAFYEILHLPNLTEDQRNAFIQSLRDDPSVSLSLLAEAKKLNDAQAPP
notes: also called Affilin-194928
B1: the Kd was found to be 2.6 nM with Natalizumab (IgG4) and 25.1 nM with Panitumab (IgG2).

As usually defined, the Kd is the concentration at which binding is half-saturated. Low readings indicate a tighter complex, high ones a looser complex.
